{"source": "PubChem BioAssay AID540267", "about": "(National Center for Advancing Translational Sciences (NCATS), 2011)", "note": "About 530 (0.16%) of roughly 340,000 compounds were called active. The shares of active, inactive and inconclusive entries below differ from those in the screen. Rule as the data show it: active = activity change below about -80%; inconclusive = between about -30% and that limit; inactive = weaker than that. % is scaled to controls: 0 for no effect and ±100 for the full control effect."}
{"assay": "Small Molecules that selectively kill Giardia lamblia: qHTS;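 also: parasites exposed to compound for two days anaerobically before the ATP read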", "details": "Giardia lamblia trophozoite viability; at 7.66 µM; active compounds read low", "in_short": "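Anaerobic 48 hrs incubation at 37 deg C of 100 trophozoites/well with test compounds; ATPLite 1-Step luminescence, 15-30 min RT, reports cellular ATP as viability.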"}
{"molecule": "CCN1C(=O)/C(=C/c2nc3ccccc3c(=O)[nH]2)c2ccccc21", "activity change": "inactive: -1.5%"}
{"molecule": "COc1ccc(/C=C/C(=O)NNC(=O)C(C)Oc2ccccc2F)cc1OC", "note": "(stereo not given)", "activity change": "inconclusive: -31.9% [inhibitor]"}
{"molecule": "COc1cc([C@@H]2OC[C@@H]3[C@H]2CO[C@@H]3c2ccc3c(c2)OCO3)ccc1O", "activity change": "inconclusive: -32.6% [inhibitor]"}
{"molecule": "CC1C(=O)C(C)(C)C(=O)OC1c1ccccc1", "note": "(stereo not given)", "activity change": "inconclusive: -33% [inhibitor]"}
{"molecule": "CCC1CCCCN1S(=O)(=O)c1ccc(NC(=O)c2cccs2)cc1", "note": "(stereo not given)", "activity change": "inactive: 3.16%"}
{"molecule": "Cc1cc(C)nc(N/N=C/c2ccc([N+](=O)[O-])o2)n1", "activity change": "inconclusive: -79.8% [inhibitor]"}
{"molecule": "COC(=O)N/N=C/c1ccc([N+](=O)[O-])s1", "activity change": "inconclusive: -71.5% [inhibitor]"}
{"molecule": "CC(C)(C)OC(=O)C[C@H]1C/C=C\\C[C@@H](CC(=O)N(CCO)Cc2ccccc2)C(=O)N[C@@H](Cc2ccccc2)COC1=O", "activity change": "inconclusive: -30.5% [inhibitor]"}
{"molecule": "CCC(=O)c1ccc(OCCn2cncn2)cc1", "activity change": "inactive: 3.46%"}
{"molecule": "C=C(C)C1CC=C(C)/C(=N\\NC(=O)CNc2ccccc2OC)C1", "note": "(stereo not given)", "activity change": "inconclusive: -35.8% [inhibitor]"}
{"molecule": "O=C(CSc1cccc[n+]1[O-])Nc1cc2c(cc1Cl)C(=O)c1ccccc1C2=O", "activity change": "inconclusive: -61.6% [inhibitor]"}
{"molecule": "CNS(=O)(=O)c1cccc(C(=O)NNC(=O)c2ccc(COc3ccccc3)cc2)c1", "activity change": "inconclusive: -30.9% [inhibitor]"}
{"molecule": "COc1ccc(Cc2noc(CN(C)Cc3ccc(-n4cccn4)cc3)n2)cc1OC", "activity change": "inconclusive: -47.2% [inhibitor]"}
{"molecule": "CCC(C)N1CCN(S(=O)(=O)c2ccc(NC(C)=O)cc2)CC1", "note": "(stereo not given)", "activity change": "inconclusive: -31.8% [inhibitor]"}
{"molecule": "O=C(CC1C(=O)NCCN1C/C=C/c1ccccc1)NCCc1cccnc1", "note": "(stereo not given)", "activity change": "inconclusive: -34.5% [inhibitor]"}
{"molecule": "COc1cccc(OC)c1C(=O)NC(C)CCc1ccccc1", "note": "(stereo not given)", "activity change": "inconclusive: -41.5% [inhibitor]"}
{"molecule": "Cc1cc(NC2CCCC2)n2nc(C)c(-c3ccccc3)c2n1", "activity change": "inactive: -23.9%"}
{"molecule": "Cc1nc(SCC(=O)Nc2nccs2)c(C#N)c(C)c1C", "activity change": "inconclusive: -36.8% [inhibitor]"}
{"molecule": "O=C(CN1C(=O)S/C(=C/c2ccc(N3CCOCC3)cc2)C1=O)N1CCOCC1", "activity change": "inconclusive: -34.8% [inhibitor]"}
{"molecule": "O=S(=O)(NCc1ccc(F)cc1)c1ccc(Br)cc1Br", "activity change": "inconclusive: -31.1% [inhibitor]"}
{"molecule": "O=C(O)/C=C/C(=O)Nc1ccccc1C(=O)OCC(=O)c1ccc2c(c1)OCCO2", "activity change": "inconclusive: -48.7% [inhibitor]"}
{"molecule": "COc1ccc(C(=O)OCC(=O)Nc2c(C)n(C)n(-c3ccccc3)c2=O)cc1", "activity change": "inactive: 5.01%"}
{"molecule": "COc1ccc(CNC(=S)NC2CCCCC2)cc1", "activity change": "inconclusive: -33% [inhibitor]"}
{"molecule": "CC1(OC(=O)CCc2ccccc2)C(=O)C=C2C=C(c3ccc(C#N)cc3)N(CCN3CCOCC3)C=C2C1=O", "note": "(stereo not given)", "activity change": "inactive: 7.7%"}
{"molecule": "O=C(C[n+]1cnn(CC(=O)c2ccc(Cl)cc2Cl)c1)c1ccc([N+](=O)[O-])cc1", "activity change": "inactive: -0.411%"}
{"molecule": "O=[N+]([O-])c1ccc(N2CCOCC2)cc1NC(c1ccccc1)c1ccccc1", "activity change": "inactive: -10.7%"}
{"molecule": "CCn1nc(C)c(/C=N/NC(=O)CSc2ccccn2)c1C", "activity change": "inactive: -5.18%"}
{"molecule": "COCCNC(=O)CCc1c(C)nc2c(-c3ccc(F)cc3)c(C)nn2c1C", "activity change": "inconclusive: -33.7% [inhibitor]"}
{"molecule": "O=C(NC1CCCCCC1)c1ccc(Br)o1", "activity change": "inconclusive: -30.5% [inhibitor]"}
{"molecule": "O=c1c2ccccc2nnn1CSc1nc2ccccc2c(=O)n1CCCO", "activity change": "inactive: -13.6%"}
{"molecule": "N#CC(C#N)=C(N)/C(C#N)=C/c1cc(O)c(O)c(O)c1", "activity change": "inactive: -15.4%"}
{"molecule": "O=C(Nc1cccnc1)c1ccco1", "activity change": "inactive: -6.15%"}
{"molecule": "CCOC(=O)C1=C(C)NC(=O)CC1c1ccccc1", "note": "(stereo not given)", "activity change": "inactive: -1.21%"}
{"molecule": "CC(C)[C@H](NC(=O)[C@@H]1CSC2c3ccccc3C(=O)N21)C(=O)N1CCCCC1", "note": "(stereo not given in full)", "activity change": "inconclusive: -30.7% [inhibitor]"}
{"molecule": "Cc1ccc(-c2nc3cnccn3c2Nc2c(C)cccc2C)o1", "activity change": "inconclusive: -41.3% [inhibitor]"}
{"molecule": "Cn1nc(N)c2c(-c3ccccc3)c(C#N)c(N)nc21", "activity change": "inconclusive: -66% [inhibitor]"}
{"molecule": "Cc1cc(-c2nc3cc(F)ccc3s2)ccc1N", "activity change": "inconclusive: -32.1% [inhibitor]"}
{"molecule": "Cc1cc(C(=O)COC(=O)c2ccccc2Br)c(C)n1CC1CCCO1", "note": "(stereo not given)", "activity change": "inconclusive: -72.2% [inhibitor]"}
{"molecule": "c1cc2c(cc1C1CCCCC1)c1c3n2CCCNC3CCC1", "note": "(stereo not given)", "activity change": "inactive: -14.4%"}
{"molecule": "CCOC(=O)/C=C/[C@H]1CCc2cccc(Cl)c2O1", "activity change": "inconclusive: -51% [inhibitor]"}
